According to the RNAGym collection of RNA variant scans (doi:10.7554/elife.90254):
The source gives no read counts; variants with many changes may rest on few reads.

B1: LINE1-full (parent)
chain: UACGUAGGUGGUUUUCCCCUGAUAGUGCUAAGGGGGCCUGGAAGUUUGGACUGGGCAGAGCUCAACACAGCGUGGCAAAGUGGCUGUGGCUAGACUGCCUCUCUGGAUUCCUCGUCACUCAGCAGGGCAUCUCUGAGAGAAAUGCC

Variants of: B1
Assay: self-cleavage, relative activity (ratio to wild type); higher = more cleavage; in vitro, sequencing; the parent is a self-cleaving ribozyme

Variant	self-cleavage
UACGUAGGUGGUUUUCCCCUGAUAGUGCUAAGGGGGCCUGAAAGUUUGGACUGGGCAGAGCUCAACACAGCGUGGCAAAGUGGCUGUGGCUGGGCUGCCUCUCUGGAUUCCUCGUCACUCAGCAGGGCAUCUCUGGGAGAAAUGCC [G41A A92G A94G A136G]	0.17
UACGUAGGUGGCUUUCCCCUGAUAAUGCUAAGGGGGCCUGGGAGUUUGGACUGGGCAGAGCUCAACACAGCGUGGCAAAGUGACUGUGGCUAGACUGCCUCUCUGGAUUCCUCGUCACCCAGCAGGGCAUCUCUGAGAGAAAUGCC [U12C G25A A42G G83A U119C]	1.29
UACGUAGGUGGUUUUCCCCUGAUAGUGCUAAGGGGGCCUGGAAGUUAGGACUGGGCAGAGCUCAACACAGCGUGGCAAAGUGGCUGUGGCUAGACUGCCACUCUGGAUUCCUCGUCACUCGGCAGGGCAUCUCUGAGAGAAAUGCC [U47A U100A A121G]	0.57
UACGUAGGUGGCUUACCCCUGAUAGUGCUAAGGGGGCCUGGAAGUUUGGACUGGGCAGAGCUCAACACAGCGUGGCGAAGUGGCUGUGGCUAGACUGCCUCUCUGGAUUCCUCGUCACUCAGCAGGGCAUCUCUGAGAGAAAUGCC [U12C U15A A77G]	1.59
UACGUAGGUGGUAUUCCCCUGAUAGUGCUAAGGGGGCCUGGAAGUUUGGACUGGGCAGAGCUCAACACAGCGUGGCAAAGUGGCUGUGGCUAGACUGCCUCUCUGGAUUCCUUGUCACUCAGCGGGGCAUCUCUGAGAGAAAUGCC [U13A C113U A124G]	0.56
UACGUAGGUGGUUUUCCCCUGAUAGCGCUAAGGGGGCCUGGAAGUUUGGACUGGGCAGAGCUCAACACAGCGUGGCAAAGUGGCUGUGGCUGGACUGCCUCUCUGGAUUCCUCGUCACUCAGCAGGGCAUCUCUGGGAGUAAUGCC [U26C A92G A136G A140U]	0
UACGUAGGUGGUUUUCCCCUGAUAGUGCUAAGGGGGUCUGGAAGUUUGGACUGGGCAGAGCUCGACACAGCGUGGCAAAGUGGCUGUGGCUAGACUGCCUCUCUGGAUUCCUCGUCACUCAGCAGGGCAUCUCUGAGGGAAAUGCC [C37U A64G A138G]	0.17
UACGUAGGUGGUUUUCCCCUGUUAGUGCUAAGGGGGCCUGGAAGUUUGGACUGGGCAGAGCCCAACACAGCGUGGCAAAGUGGCUGUGGCUAGACUGCCUCUCUGGAUUCCUCGUCACUCAGCAGGGCAUCUCUGGGAGAGAUGCC [A22U U62C A136G A141G]	0
UACGUAGGUGGCUUUCCCCUGAUAGUGCUAAGGGGGCCUGGAAGUUUGGACUGGGCAGAGCCCAACACAGCGUGGCAAAGUGGCUGUGGCUAGACUGCCUCUCUGGAUUCCUCGUCGCUCAGCAGGGCAUCUCUGAGAGAAAUGCC [U12C U62C A117G]	0.26
UACGUAGGUGGUCUUCCCCUGAUAGCGCUAAGGGGGCCUGGAAGAUUGGACUGGGCAGAGCUCAACACAGCGUGGCAAAGUGGCUGUGGCUAGACUGCCUCUCUGGAUACCUCGUCACUCAGCAGGGCAUCUCUGAGAGAAAUGCC [U13C U26C U45A U109A]	0.64
UACGUAGGUGGUUUUCCCCUGAUAGUGCUAAGGGGGCCUGGAGGUUUGGACUGGGCAGAGCUCAACACAGCGAGGCAAAGUGGCUGUGGCUAGACUGCCUCUCUGGAUUCCUUGUCACUCAGCAGGGCAUCUCUGAGAGAAAUGCC [A43G U73A C113U]	1.58
UACGUAGGUGGUUCUCCCCUGAUAGUGCUAAGGGGGCCUGGAAGUUUGGACUGGGCAGAGCUCAACACAGCGUGGCAAGGUGGCUGUGGCUAGACUGCCUCUCUGGACUCCUCGUCACACAGCAGGGCAUCUCUGAGAGAAAUGCC [U14C A79G U108C U119A]	2.04
UACGUAGGUGGUUUUCCCCUGAUAGUGCUAAGGGGGCCUGGAAGUUUGGACUGGGCAGAGCUCUACACAGCGUGGCAAAGUGGCUGUGGCUAGACUGCCUCUCUGUAUCCCUCGUCACUCAGCAGGGCACCUCUGAGAGAAAUGCC [A64U G106U U109C U130C]	0.28
UACGUAGGUGGUUUUCCCCUGAUAGUGCUAAGGGGGCCUGGAAGUUUGGACUGGGCAGAGCUCAACACAGCGCGGCAGAUUGGCUGUGGCUAAACUGCCUCUCUGGAUUCCUCGUCACUCAGCAGGGCAUCUCUGAGAGAGAUGCC [U73C A78G G80U G93A A141G]	0.08
UACGUAGGUGGUUUCCCCCUGAUAGUGCUAAGGGGGCCUGGAAGUUUGGACUGGGCAGAACUCAACACAGCGUGGCAAAGUGGCUGUGGCUAGACUGCCUCUCUGGAUUCCUCGUCACUCAGCUGGGCUUCUCUGAGAGGAAUGCC [U15C G60A A124U A129U A140G]	0.04
UACGUAGGUGGUUUUCCCCUGGUAGUGCCAAGGGGGCCUGGAAGUUUGGACUGGGCAGAGCUCAACACAGCGUGGCAAAGUGGCUGUGGCUAGACUGCCUCUCUGGAUUCCUCGUCACUCAGCAGGGCAUCUCUGAGAGAAGUGCC [A22G U29C A142G]	0.35
UACGUAGGUGGUUCUCCCCUGAUAGUGCUAAGGGGGCCUGGAAGUUUGGACUGGGCAGAGCUCAACUCAGCGUGGCAAAGUGGCUGUGGCUAGACUGCCUCUCAGGUUUCCUCGUCACUCAGCAGGGCAUCUCUGAGAGAAAUGCC [U14C A67U U104A A107U]	0.14
UACGUAGGUGGUUUUCCCCUGAUAGUGCUAAGGGGGCCUGGAAGUUUGGACUGGGCAGAGCCCAGCACAGCGUGGCAAAGUGGCUGUGGCUAGACUGCCUCUCUGGAUUCCUCGUCACUCAGCAGGGCAUCUCUGAGAGUAAUGCC [U62C A65G A140U]	0.03
UACGUAGGCGGUUUUCCCCUGAUAGUGCUAAGGGGGCCAGGAAGUUUGGACUGGGCAGAGCUCAGCACAGCGUGGCAAAGUGGCAGUGGCUAGACUGCCUCUCAGGAUUCCUCGCCACUCAGCAGGGCAUCUCUGAGAGAAAUGCC [U9C U39A A65G U85A U104A U115C]	0
UACGUAGGUGGGUUUCCCCUGAAAGUGCUAAGGGGGCCUGGAAGUUUGGACUGGGCAGAGCUCAGCACAGCGUGGCAAAGCGGCUGUGGCUAGACUGCCUCUCUGGAUUCCUCGUCACUCAGCAGGGCAUCUCUGAGAGAAAUGCC [U12G U23A A65G U81C]	0.34

Variant	self-cleavage
UACGUAGGUGGUUUUCCCCUGAUAGUGCUAAGGGGGCCUGGAAGUUUGGACUGGGCAGAGCUCGACACAGCGUGGCAAAGUGGCUGUGGCUAGACUGCCUCUCUGGAUUCCUCGACACCCAGCAGGGCAUCUCUGAGAGAAACGCC [A64G U115A U119C U143C]	0.19
UACGUGGGUGGUUUUCCCCUGAUAGUGCUAAGGGGGCCUGGAAGAUUGGACUGGGCAGAGCUCAACACAGCGUGGCAAAGUGGCUGUGGCUAGACUGCCUCUCUGGAUUCCUCGUCACUCAGCAGGGCACCUCUGAGAGAAAUGCC [A6G U45A U130C]	1.01
UACGUAGGUGGUUUUCCCCUGAUAGUGCUAAGGGGGCCUGGAAGUUUGGACUGGGCAGGGAUCAACACAGCGUGGCAAAGUGGCUGAGGCAAGACUGCCUCACUGGAUUCCUCGUCACUCAGCAGGGCAUCUCUGAGAGAAAUGCC [A59G C61A U87A U91A U102A]	0.09
UACAUAGGUGGUUUUCCCCUGAUAGUGCUAAGGGGGCCUGGGAGUUUGGACUGGGCAGAGCUCAACACAGCGUGGCAAAGUGGCUGUGGCUAGACUGCCUCUCUGGAUUCCUCGUCACUCAGCAGGGCAUAUCUGAGAGAAAUGCC [G4A A42G C131A]	0.64
UACGUAGGUGGUUUUCCCCUGAUAGUGCUAAGGGGGCCUGGAAGUUUGGACUGGGCAGAGCUCAACACCGCGUGGCAAAGUGGCUGUGGCAAGACUGCCUCUCAGGAUUCCUCGUCACUCAGCAGGGCAUCUCUGAGAGCAAUGCC [A69C U91A U104A A140C]	0
UACGUAGGUGGUUUUCCCCUGAUAGUGCUAAGGGGGCCUGGAAGUUUGGACUGGGCAGAGCUCAACACAGCGUGGCAAAGUGGCCGUGGCUGGGCUGCCUCUCUGGAUUCCUCGUCACUCAGCAGGGCAUCUCUGAGAGAAAUGCC [U85C A92G A94G]	0
UACGCAGGUGGUUUUCCCCUGAUAGUGCUAAGGGGGCCUGGAAGUUUGGAUUGGGCAGAGCUCAACACAGCGUGGCAAAGUGGCUGUGGCUAGACUGCCUCCCUGGAUUCCUCGUCACUCAGCAGGGCAUCUCUGAGAGAAAUGCC [U5C C51U U102C]	0.9
UACGUAGGUGGUUUUCCCCUGGUAGUGCUAAGGGGGCCUGGAAGUUUGGACUGGGCAGUGCUCAACACAGCGUGGCAAAGUGGCUGUGGCUAGACUGCCUCUCUGGAUUCCUCGUCACUCAGCAGGGCACCUCUGAGAGAAAUGCC [A22G A59U U130C]	0.27
UACGUUGGUGGUUUUCCCCUGAUAGUGCUAAGGGGGCCUAGAAGUUUGGACUGGGCAGGGCUCAACACAGCGUGGCAAAGUGGCUGUGGCUAGACUGCCUCUCUGGAUUCCUCGUCACUCAGCAGGGCACCUCUGAGAGAAAUGCC [A6U G40A A59G U130C]	0.11
UACGUAGGUGGUUUCCCCCUGAUAGUGCUAAGGGGGCCUGGAGGUUUGGACUGGGCAGAGCUCAACACAGCGUGGCAAAGUGGCUGUGGCUAGACUGCCUCUCUGGAUUCCUCGUCACUCAGCAGGGCAUCUCUGAGAGAGAUGCC [U15C A43G A141G]	2.09
UACGUAGGUGGUUUACCCCUGAUAGUGCUAAGGGGGCCUGGAGGUUUGGACUGGGCAGAGCUCAACACAGCGUGGCAAAGUGGCUGUGGCUAGACUGCCUCUCAGGCCUCCUUGUCACUCAGCAGGGCAUCUCUGAGAGAAAUGCC [U15A A43G U104A A107C U108C C113U]	0
UACGUAGGUGGUUUUCCCCUGAUAGUGCUAAGGGGGCCUGGAAGUUUGGACUGGGCGGAGCUCAACACAGCGUGGCAUAGUGGCUGUGGCUAGACAGCCUCUCUGGAUUCCUCGUCACUCAGCAGGGCAUCUCUGAGAGAAAUGCC [A57G A78U U96A]	0.04
UACGUAGGUGGUUUUCCCCUGAUAGUGCUAAGGGGGCCUGGAAGUUUGGACUGGGCGGAGCUCAACACAGUGUGGCAAAGUGGCUGUGGCUAGACUGCCUCUCUGGAUUCCUCGUCACUCGGCAGGGCAUCUCUGAGAGAAAUGCC [A57G C71U A121G]	0.12
UACGUAGGUGGUUCUCCCCUGAUAGUGCUAAGGGGGCCCGGAAGUUUGGACUGGGCAGAGCUCAACACAGCGUGGCAAAGAGGCUGUGGCUAGACUGCCUCUCUGGAUUCCUCGUCCCUCAGCAGGGCAUCUCUGAGGGAAAUGCC [U14C U39C U81A A117C A138G]	2.92
UACGUAGGUGGUCUUCCCCUGAUAGUGCUAAGGGGGCCUGGGAGUUUGGACUGGGCAGAGCUCAACACAGCGUGGCAAAGUGGCUGUGGCUAGACUGCCUCUCUGGAUUCCUCGUCACUCAGCAGGGCAUCUCUGAGAGGAAUGCC [U13C A42G A140G]	0.99
UACGUAGAUGGUUUUCCCCUGAUAGUGCUAAGGGGGCCUGGAAGCUUGGACUGGGCAGAGCUCAACACAGCGUGGCAAAGUGGCUGUGGCUAGACUGCCUCUCUGGAUUCCUCGUCACUCAGCAGGGCAUCUCUGAGUGAAAUGCC [G8A U45C A138U]	0.97
UACGUAGGUGGUUUUCCCCUAAUAGUGCUAAGGGGGCCUGGAAGUUUGGACUGGGCAGAGCUCAACACAGCGUGGCUAAGUGGCUGUGGCUAGACUGCCUCUCUGGAUUCCUCGUCACUCAGCAGGGCAUCUCUGAGAGAAACGCC [G21A A77U U143C]	1.17
UACGUAGGUGGUUUUCCCCUGAUAGUGCUAAGGGGGCCUGGAAGUUUGGACUGGGCAGAGCUCAACACAGCGUGGCAAAGCGGCUGUGGCCAGACUGCCUCUCUGGAUUCCUCGUCACCCAGCAGGGCAUCUCUGAGAGAAAUGCC [U81C U91C U119C]	1.53
UACGUAGGUGGUUUUCCCCUGAUAGUGCUAAGGGGGCCUGGAAGUUUGGACCGGGCAGAGCUCAACACAGCGUGGCAAAGUGGCUGUGGCUAGACUGCCUCUCUGGAUUCCCCGUCACUUAGCAGGGCAUCUCUGAGAGAAAUGCC [U52C U112C C120U]	1.3
